Reference: PubChem BioAssay AID1347073 (National Center for Advancing Translational Sciences (NCATS), 2019)
Hit rate of the full screen: of about 45,000 compounds, about 200 (0.44%) were called active. Another 7% or so got no clear call; they are omitted. Calls come from the whole dose curve; as a rule, active = well fitted activation curve with a large enough effect; inconclusive = small, poorly fitted or top-dose-only effect; inactive = no such curve, though single readings can be large or run the other way. This is one part of the list.

Assay: qHTS of TDP-43 Inhibitors: NCGC Sytravon Library Screen; note: 0% is about no effect; nearly all actives have a fitted effect of over 55% in size
Conditions: yeast TDP-43 toxicity rescue, BacTiter-Glo growth, 24 h; series mostly up to 46.1 µM; growth rescue (activation): at the top concentration
Procedure, shortened: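 TDP-43-expressing yeast, pregrown in raffinose, seeded at OD600 0.02 in galactose medium with compound for 24 hr at 30 deg C. Growth read by BacTiter-Glo luminescence, so rescue of toxicity appears as activation.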

Structure (SMILES)	growth rescue (activation)
Nc1nc(-c2cccc(F)c2)cs1	inactive: 25.9%
O=C(COc1ccccc1C(=O)O)Nc1nc2ccc([N+](=O)[O-])cc2s1	inactive: 3.7%
Cc1nc2ccc(S(=O)(=O)N(C)CC(=O)Nc3ccc(C(C)C)cc3)cc2s1	inactive: 12.9%
CC(NC(=O)COC(=O)C12CC3CC(CC(O)(C3)C1)C2)c1ccccc1 (configuration not stated)	inactive: 7.61%
Cc1noc(NS(=O)(=O)c2ccc(NC(=O)/C=C/c3ccccc3)cc2)c1C	inactive: 11.4%
Cc1ccc(S(=O)(=O)NNC(=O)c2sc(NS(=O)(=O)c3ccccc3)nc2C)cc1	inactive: 11%
CCOC(=O)c1c(NC(=O)CSc2nnc(-c3ccc(Cl)cc3)o2)sc2c1CCC2	inactive: -28.8%
Cc1ccc(S(=O)(=O)N2CCN(CCc3ccncc3)CC2)cc1	inactive: 3.9%
O=C(Nc1cc(Cl)ccc1N1CCOCC1)c1ccc(=O)[nH]c1	inactive: -7.04%
CCSCCOC(=O)C1=C(C)N(C)C(=O)NC1c1cc(OC)ccc1OC (configuration not stated)	inactive: 0.305%
O=C(NCCCN1CCCC1)[C@H](CSCc1ccccc1)N1Cc2ccccc2C1=O	inactive: -33.2%
C#CC1(NC(=O)NCCCC)CCCCC1	inactive: 11.3%
CC(=O)N1CCC(N(CCN2CCOCC2)C(=S)Nc2ccc(C)cc2C)CC1	inactive: 5.91%
CCc1ccc(CN(C)CC(=O)Nc2ccc3c(c2)CCC3)cc1	inactive: -5.9%
COc1ccc(NC(=O)CSc2ccc3c(c2)OCCO3)cc1S(N)(=O)=O	inactive: 8.4%
CSc1nsc(SCC(=O)Nc2ccccc2C(=O)O)n1	inactive: 1.59%
Cc1ccc(C(=O)/C=C/Nc2cccc([N+](=O)[O-])c2)o1	inactive: 1.96%
O=[N+]([O-])c1cc(S(=O)(=O)N2CCOCC2)ccc1NS(=O)(=O)c1ccccc1	inactive: 7.75%
COc1ccc(S(=O)(=O)Nc2ccccc2Cl)cc1NC(C)=O	inactive: -19.7%
CN(C)S(=O)(=O)c1ccc(C(=O)OCC2COC(C)(C)O2)cc1 (configuration not stated)	inactive: 15.5%
CCOC(=O)C1CCC(CN(Cc2ccccc2)S(=O)(=O)c2ccc([N+](=O)[O-])cc2)CC1 (configuration not stated)	inactive: -2.59%
Cc1cc(=O)n2ncnc2n1COCCO	inactive: -1.77%

Structure (SMILES)	growth rescue (activation)
CC(=O)c1c(C)[nH]c(C(=O)CSc2ccc(F)cc2)c1C	inactive: -4.53%
COc1ccc(C)cc1S(=O)(=O)Nc1cccc(C)c1	inactive: 5.72%
COC(=O)NNC(=S)NCc1ccc(C)cc1	inactive: 18.5%
Cc1ccc(NC(=O)CSc2nnc(-c3ccco3)o2)c(C)c1	inactive: 9.74%
CCOC(=O)N1CCN(C(=O)COC(=O)c2cc(Cl)cc(Cl)c2)CC1	inactive: 31.5%
COc1ccc2oc(C(=O)NCCN3CCOCC3)c(C)c2c1OC	inactive: -7.95%
Cc1ccc(C)c(Cn2c(O)c(N=NC(=S)Nc3ccccc3F)c3ccccc32)c1	inactive: -13%
COc1ccc(NC(=O)/C=C/c2ccc(C)o2)cc1S(=O)(=O)N1CCOCC1	inactive: 4.47%
COc1ccc2c(CC(=O)NNC(=O)c3ccc(O)cc3)coc2c1	inactive: 16.7%
CCOC(=O)c1[nH]c(C)c(C(=O)OCC(=O)Nc2sc3c(c2C#N)CCCCC3)c1C	inactive: 10.9%
O=C(Nc1ccc2c(c1)CN(Cc1ccco1)CC2)C1CCCO1 (configuration not stated)	inactive: 14.7%
COc1cc(C(=O)NCC(=O)N/N=C\C(C)=C/c2ccccc2)cc(OC)c1OC	inactive: 1.76%
CC(C)Nc1ncnc2c1ncn2[C@H]1CN(CCN2CCOCC2)C[C@@H](CO)O1	inactive: 16.4%
CC(c1n[nH]c(=S)n1-c1ccccc1)N1CCCCC1 (configuration not stated)	inactive: -5.2%
COCCNC(=S)N/N=C(\C)c1ccc(OC)cc1	inactive: 17%
CCOC(=O)c1cnc2c(C#N)c(C)nn2c1C	inactive: 2.21%
CC(=O)Nc1ccc(S(=O)(=O)NNc2cccc(C)c2)cc1	inactive: 15.3%
Cc1ccc(C)c(OCC(=O)Nc2ccc(S(=O)(=O)Nc3onc(C)c3C)cc2)c1	inactive: 9.26%
Cn1nnnc1SCC(=O)NCc1cc([N+](=O)[O-])ccc1O	inactive: 7.3%
N#C/C(=C\c1ccccc1OCc1ccc(C(=O)O)cc1)c1ccccc1	inactive: 16.9%
CCCN(CCC)CCCNC(=O)CN1C(=O)CSc2ccc(S(=O)(=O)N3CCOCC3)cc21	inactive: -1.7%
C=CCc1c(C)nc(SCc2nc3ccccc3c(=O)[nH]2)[nH]c1=O	inactive: 28.9%

Structure (SMILES)	growth rescue (activation)
COc1ccc(CCNC(=O)CSC2=Nc3ccccc3C3=NC(C(C)C)C(=O)N23)cc1OC (configuration not stated)	inactive: 11.8%
CCN(CC)C(=S)SCC(=O)NC12CC3CC(CC(C3)C1)C2	inactive: -7.93%
O=C(Cn1nc(-c2ccccc2)oc1=O)OCC(=O)c1ccccc1	inactive: -13.7%
CCC(=O)NC(=S)Nc1ccc(NC(=O)c2ccco2)cc1	inactive: 15.3%
O=C(CNc1cccc([N+](=O)[O-])c1)N1CCN(S(=O)(=O)c2ccc(Cl)cc2)CC1	inactive: 18.1%
COc1ccc(CCNC(=O)COC(=O)/C=C/c2ccc3c(c2)OCO3)cc1	inactive: -0.247%
CCN(c1ccccc1)S(=O)(=O)c1ccc(OC)c(NC(=O)C2=NN(c3ccccc3)C(=O)CC2)c1	inactive: 2.12%
O=C(CSc1nnc(-c2ccco2)o1)c1ccc(O)cc1O	inactive: 9.58%
CCN(CC)C(=O)C1CCCN(C(=S)Nc2cccc3ccccc23)C1 (configuration not stated)	inactive: 7.77%
COc1ccc(C(=O)Nc2ccnn2C2CCN(CC3CC=CCC3)CC2)cc1 (configuration not stated)	inactive: 2.33%
CC(C)CCOP(=O)(c1ccc(N(C)C)cc1)C(O)c1ccc(Cl)cc1Cl (configuration not stated)	inactive: -73.6%
CC(=O)Nc1ccc(NC(=O)COC(=O)Cn2cnc3ccccc32)cc1	inactive: 9.1%
COc1ccc(S(=O)(=O)Nc2ccccc2C(=O)N2CCOCC2)cc1C	inactive: -7.28%
Cc1cc(NC(=O)c2cncc(Br)c2)n(-c2ccccn2)n1	inactive: 5.83%
CCOC(=O)C1(C)CCN1C(=O)c1cc(OC)ccc1Br (configuration not stated)	inactive: 3.63%
O=c1cnn(Cc2c(Cl)cccc2Cl)c2ccccc12	inactive: -20.1%
O=C(CN1CCN(c2ccc(O)cc2)CC1)Nc1ccc(S(=O)(=O)N2CCCC2)cc1	inactive: -20%
CC(C)(CCC(=S)N1CCOCC1)C1CCCCC1	inactive: 23.7%
CCC1(c2ccccc2)NC(=O)N(CC(=O)NCc2ccccc2OC)C1=O (configuration not stated)	inactive: 7.15%
NNC(=O)c1sc2cc(C(F)(F)F)cnc2c1-c1cccs1	inactive: 11.4%
CC(C)CNC(=O)C1CCN(Cc2ccc(OCc3ccccc3)cc2)CC1	inactive: 7.62%
O=C(O)C(=O)Nc1ccc(NC(=O)C(c2ccccc2)c2ccccc2)cc1	inactive: 8.85%

Structure (SMILES)	growth rescue (activation)
CCc1ccccc1NC(=O)CC1NCCNC1=O (configuration not stated)	inactive: 5.25%
CCC(CC)C(=O)N(C)c1c(C)nc2c(OCc3ccc(F)c(F)c3)cccn12	inactive: 14.1%
CCCCc1nnc(NC(=O)C2CC(=O)N(c3ccc(C)cc3)C2)s1 (configuration not stated)	inactive: 0.673%
O=C(Oc1ccc(C(=S)N2CCC(O)CC2)cc1)c1ccc(Cl)cc1	inactive: 23.7%
CCCC(C(=O)NC1=NCCS1)c1ccccc1 (configuration not stated)	inactive: 1.97%
CC(=O)Nc1cccc2c1C(=O)N(c1cccc(OC(C)=O)c1)C2=O	inactive: -1.91%
CC(C)C(=O)Nc1nc2ccc(S(C)(=O)=O)cc2s1	inactive: 2.41%
COc1ccc(N2CCN(C(=O)c3cc4ccccc4o3)CC2)cc1	inactive: 12.4%
COc1cc(/C=C/C(=O)O)cc(S(=O)(=O)Nc2ccc(F)cc2)c1OC	inactive: 0.633%
Cc1ccc(-c2nc3ncccc3o2)cc1NC(=O)c1ccccc1	inactive: -10.2%
COc1cccc(CNC(=O)CCC2CCCN(c3cc(C)nc(N(C)C)n3)C2)c1 (configuration not stated)	inactive: 9.4%
CNc1nc(-c2cccc(C(=O)N(C)C)c2)cn2ccnc12	inactive: 3.93%
O=c1[nH]cnc2c1sc1nc(-c3ccccc3)c3c(c12)CCCC3	inactive: 10.3%
Cc1c(C(=O)NC2CCN(Cc3ccccc3)C2)oc2ccc(Br)cc12 (configuration not stated)	inactive: 6.09%
CCn1c(N2CCN(CC(=O)c3c(C)n(C)c4ccccc34)CC2)nc2c1c(=O)[nH]c(=O)n2C	inactive: 12.1%
COc1cc(C(C)=O)ccc1OCC(=O)N1CCc2ccccc2C1	inactive: 8.28%
CCOC(=O)CCSc1nc(N2CCOCC2)c2c(c1C#N)CC(C)(C)OC2	inactive: 2.04%
CC(Cl)C(=O)NNC(=O)CNS(=O)(=O)c1ccccc1 (configuration not stated)	inactive: 2.75%
CCOC(=O)C1(C)CCCN1C(=O)c1ccc(N(C)C)cc1 (configuration not stated)	inactive: 14.2%
Cc1ccc(SCc2cc(=O)[nH]c(Nc3nc(C)c4ccc(C)cc4n3)n2)cc1	inactive: 11.8%
CCOc1cc(NC(=S)NC)c(OCC)cc1NC(=O)c1ccco1	inactive: 7.78%
CCc1ccc(CN(C)C(=O)CCc2nnc(CCc3ccccc3OC)o2)nc1	inactive: 12.8%

Structure (SMILES)	growth rescue (activation)
O=[N+]([O-])c1ccc(Cl)c(S(=O)(=O)/N=C(/Nc2cccnc2)c2ccccc2)c1	inactive: 7.47%
CN(C)c1ccnc(Nc2ccc(F)cc2)c1C#N	inactive: 9.98%
Cc1ccc(NS(=O)(=O)c2cc(C(=O)NCc3cccnc3)ccc2C)cc1	inactive: 12.7%
COc1cc(CN2CCN(Cc3ccccc3C(F)(F)F)CC2)cc(OC)c1OC	inactive: -1.97%
O=C(O)C1CCC(Cn2c(SCc3cc(=O)n4cc(Cl)ccc4n3)nc3ccsc3c2=O)CC1 (configuration not stated)	inactive: -7.15%
CC(=O)c1cc(F)ccc1OCC(=O)N1CCCc2ccccc21	inactive: 32.3%
CN(C)c1ccc(NS(=O)(=O)c2ccc(Cl)cc2)cc1	inactive: 11.6%
NS(=O)(=O)c1ccc(NC(=O)c2cc(=O)c3ccccc3o2)cc1	inactive: 8.85%
COC(=O)c1sc(NC(=S)NC(=O)c2ccccc2Cl)nc1C	inactive: 16.4%
CCn1c2ccccc2c2cc(CN3CCN(Cc4cccc(Cl)c4)CC3)ccc21	inactive: 10.7%
O=C(Nc1cc(S(=O)(=O)Nc2ccccc2Cl)ccc1O)c1sc2cc(Cl)ccc2c1Cl	inactive: 3.81%
Cc1ccc(C(=O)O)cc1NC(=O)c1nsc2ccccc12	inactive: 6.57%
Cc1ccc2c(c1)N(CC(=O)N1CCCCC1)C(=O)C(C)O2 (configuration not stated)	inactive: 13.7%
CC(=O)Nc1ccc(NC(=O)[C@@H]2CCCC[C@@H]2C(=O)O)cc1	inactive: -1.29%
CC1CCCN(C(=O)C2CCN(S(=O)(=O)c3cccs3)CC2)C1 (configuration not stated)	inactive: 10.8%
Cc1c(/C(O)=C2\C(=O)C(=O)N(CCCN(C)C)C2c2ccccc2)cnn1-c1ccccc1 (configuration not stated)	inactive: 13.8%
CCOC(=O)C1(CCOC)CCN(Cc2ccncc2)CC1	inactive: -5.4%
COc1ccc(-c2cc(=O)oc3cc(OCC(C)=O)ccc23)cc1	inactive: 11.7%
COC(=O)C(CCSC)NC(=O)c1cc2c(n(-c3ccc(C)cc3)c1=O)CCCC2=O (configuration not stated)	inactive: 12.3%
